According to the CheMixHub viscosity set:
Values joined by “and” are separate entries in the source; they are usually repeats but may differ in a detail not shown here. Equal entries are not always repeated. This continues a long series; more values of the same kind are listed elsewhere.

Assay: xn = mol fraction of the nth substance listed

[Cl-].[Na+] + O
Details | viscosity
293.15 K, 100 kPa, x1 = 0.0152 | 1.076 mPa·s
293.15 K, 101.3 kPa, x1 = 0.04 | 1.254 mPa·s
293.15 K, 101.3 kPa, x1 = 0.055 | 1.362 mPa·s
293.15 K, 101.3 kPa, x1 = 0.072 | 1.418 mPa·s
298.15 K, 100 kPa, x1 = 0.003569 | 0.912 mPa·s
298.15 K, 100 kPa, x1 = 0.003647 | 0.911 mPa·s
298.15 K, 100 kPa, x1 = 0.00612 | 1.033 mPa·s
298.15 K, 100 kPa, x1 = 0.00887 | 0.94 mPa·s
298.15 K, 100 kPa, x1 = 0.01261 | 0.958 mPa·s
298.15 K, 100 kPa, x1 = 0.01772 | 0.984 mPa·s
298.15 K, 100 kPa, x1 = 0.01818 | 0.989 mPa·s
298.15 K, 101 kPa, x1 = 0.0009 | 0.8978 mPa·s
298.15 K, 101 kPa, x1 = 0.001995 | 0.9 mPa·s and 0.9002 mPa·s
298.15 K, 101 kPa, x1 = 0.003 | 0.9276 mPa·s
298.15 K, 101 kPa, x1 = 0.01014 | 0.9363 mPa·s and 0.9362 mPa·s
298.15 K, 101 kPa, x1 = 0.01515 | 0.9607 mPa·s
298.15 K, 101 kPa, x1 = 0.04333 | 1.134 mPa·s
298.15 K, 101 kPa, x1 = 0.05279 | 1.21 mPa·s
298.15 K, 101 kPa, x1 = 0.07012 | 1.385 mPa·s
298.15 K, 101 kPa, x1 = 0.0863 | 1.574 mPa·s and 1.575 mPa·s
298.15 K, 101.33 kPa, x1 = 0.09998 | 1.577 mPa·s
303.15 K, 100 kPa, x1 = 0.003569 | 0.824 mPa·s
303.15 K, 100 kPa, x1 = 0.003647 | 0.823 mPa·s
303.15 K, 100 kPa, x1 = 0.008855 | 0.844 mPa·s
303.15 K, 100 kPa, x1 = 0.00887 | 0.851 mPa·s
303.15 K, 100 kPa, x1 = 0.01261 | 0.863 mPa·s
303.15 K, 100 kPa, x1 = 0.01772 | 0.889 mPa·s
303.15 K, 100 kPa, x1 = 0.01818 | 0.894 mPa·s
303.15 K, 101 kPa, x1 = 0.0002314 | 0.7989 mPa·s
303.15 K, 101 kPa, x1 = 0.0002878 | 0.7992 mPa·s and 0.7991 mPa·s
303.15 K, 101 kPa, x1 = 0.000365 | 0.7995 mPa·s
303.15 K, 101 kPa, x1 = 0.001112 | 0.8025 mPa·s and 0.8027 mPa·s
303.15 K, 101 kPa, x1 = 0.001995 | 0.8066 mPa·s and 0.8067 mPa·s
303.15 K, 101 kPa, x1 = 0.004239 | 0.8161 mPa·s and 0.816 mPa·s
303.15 K, 101 kPa, x1 = 0.01014 | 0.8411 mPa·s and 0.841 mPa·s
303.15 K, 101 kPa, x1 = 0.05279 | 1.091 mPa·s and 1.092 mPa·s
303.15 K, 101 kPa, x1 = 0.0863 | 1.413 mPa·s and 1.414 mPa·s
303.15 K, 101 kPa, x1 = 0.09494 | 1.522 mPa·s and 1.523 mPa·s
307.3 K, 100 kPa, x1 = 0.09185 | 1.359 mPa·s
307.61 K, 100 kPa, x1 = 0.09185 | 1.35 mPa·s
307.62 K, 100 kPa, x1 = 0.09185 | 1.35 mPa·s
308.15 K, 100 kPa, x1 = 0.003569 | 0.746 mPa·s
308.15 K, 100 kPa, x1 = 0.003647 | 0.748 mPa·s
308.15 K, 100 kPa, x1 = 0.008855 | 0.766 mPa·s
308.15 K, 100 kPa, x1 = 0.00887 | 0.771 mPa·s
308.15 K, 100 kPa, x1 = 0.01261 | 0.783 mPa·s
308.15 K, 100 kPa, x1 = 0.01772 | 0.805 mPa·s
308.15 K, 100 kPa, x1 = 0.01818 | 0.815 mPa·s
308.15 K, 101 kPa, x1 = 0.0009 | 0.7251 mPa·s
308.15 K, 101 kPa, x1 = 0.005 | 0.7433 mPa·s
308.15 K, 101.3 kPa, x1 = 0.00112 | 0.7238 mPa·s
308.15 K, 101.3 kPa, x1 = 0.002247 | 0.7353 mPa·s
308.15 K, 101.3 kPa, x1 = 0.004484 | 0.7441 mPa·s
308.15 K, 101.3 kPa, x1 = 0.008927 | 0.7642 mPa·s
308.15 K, 101.3 kPa, x1 = 0.0177 | 0.799 mPa·s
308.15 K, 101.33 kPa, x1 = 0.000905 | 0.7247 mPa·s
308.15 K, 101.33 kPa, x1 = 0.006344 | 0.7542 mPa·s
308.15 K, 101.33 kPa, x1 = 0.008159 | 0.7646 mPa·s
310.15 K, 101 kPa, x1 = 9e-05 | 0.6988 mPa·s
310.15 K, 101 kPa, x1 = 0.000182 | 0.7 mPa·s
310.15 K, 101 kPa, x1 = 0.000911 | 0.7039 mPa·s
310.15 K, 101 kPa, x1 = 0.00178 | 0.7083 mPa·s
310.15 K, 101 kPa, x1 = 0.003 | 0.743 mPa·s
310.15 K, 101 kPa, x1 = 0.009131 | 0.7351 mPa·s
310.15 K, 101 kPa, x1 = 0.01839 | 0.7756 mPa·s
313.15 K, 100 kPa, x1 = 0.003569 | 0.679 mPa·s
313.15 K, 100 kPa, x1 = 0.003647 | 0.681 mPa·s
313.15 K, 100 kPa, x1 = 0.008855 | 0.703 mPa·s
313.15 K, 100 kPa, x1 = 0.00887 | 0.703 mPa·s
313.15 K, 100 kPa, x1 = 0.01261 | 0.714 mPa·s
313.15 K, 100 kPa, x1 = 0.01772 | 0.735 mPa·s
313.15 K, 100 kPa, x1 = 0.01818 | 0.75 mPa·s
313.15 K, 101 kPa, x1 = 0.0003096 | 0.654 mPa·s and 0.6545 mPa·s
313.15 K, 101 kPa, x1 = 0.0009631 | 0.6568 mPa·s and 0.657 mPa·s
313.15 K, 101 kPa, x1 = 0.009969 | 0.6909 mPa·s and 0.6915 mPa·s
313.15 K, 101 kPa, x1 = 0.02011 | 0.732 mPa·s and 0.7328 mPa·s
313.15 K, 101 kPa, x1 = 0.04071 | 0.832 mPa·s and 0.8329 mPa·s
313.15 K, 101 kPa, x1 = 0.06533 | 0.9874 mPa·s and 0.9883 mPa·s
313.15 K, 101 kPa, x1 = 0.08944 | 1.192 mPa·s and 1.193 mPa·s
313.15 K, 101.3 kPa, x1 = 0.00112 | 0.661 mPa·s
313.15 K, 101.3 kPa, x1 = 0.002247 | 0.67 mPa·s
313.15 K, 101.3 kPa, x1 = 0.004484 | 0.6786 mPa·s
313.15 K, 101.3 kPa, x1 = 0.008927 | 0.695 mPa·s
313.15 K, 101.33 kPa, x1 = 0.000905 | 0.6616 mPa·s
313.15 K, 101.33 kPa, x1 = 0.002718 | 0.6705 mPa·s
313.15 K, 101.33 kPa, x1 = 0.00453 | 0.6792 mPa·s
313.15 K, 101.33 kPa, x1 = 0.006344 | 0.6858 mPa·s
313.15 K, 101.33 kPa, x1 = 0.008159 | 0.6959 mPa·s
313.62 K, 100 kPa, x1 = 0.09185 | 1.204 mPa·s
313.83 K, 100 kPa, x1 = 0.09185 | 1.199 mPa·s
313.86 K, 100 kPa, x1 = 0.09185 | 1.196 mPa·s
318.15 K, 100 kPa, x1 = 0.003569 | 0.62 mPa·s
318.15 K, 100 kPa, x1 = 0.003647 | 0.625 mPa·s
318.15 K, 100 kPa, x1 = 0.00887 | 0.644 mPa·s
318.15 K, 100 kPa, x1 = 0.01261 | 0.655 mPa·s
318.15 K, 100 kPa, x1 = 0.01772 | 0.675 mPa·s
318.15 K, 100 kPa, x1 = 0.01818 | 0.693 mPa·s
318.15 K, 101 kPa, x1 = 0.0009 | 0.6022 mPa·s
318.15 K, 101 kPa, x1 = 0.002 | 0.6056 mPa·s
318.15 K, 101 kPa, x1 = 0.005 | 0.6189 mPa·s
323.15 K, 100 kPa, x1 = 0.003569 | 0.572 mPa·s
323.15 K, 100 kPa, x1 = 0.003647 | 0.58 mPa·s
323.15 K, 100 kPa, x1 = 0.008855 | 0.6 mPa·s
323.15 K, 100 kPa, x1 = 0.00887 | 0.596 mPa·s
323.15 K, 100 kPa, x1 = 0.01261 | 0.61 mPa·s
323.15 K, 100 kPa, x1 = 0.01772 | 0.626 mPa·s
323.15 K, 100 kPa, x1 = 0.01818 | 0.645 mPa·s
323.15 K, 101 kPa, x1 = 0.0003096 | 0.5478 mPa·s and 0.5481 mPa·s
323.15 K, 101 kPa, x1 = 0.0009631 | 0.5502 mPa·s and 0.5504 mPa·s
323.15 K, 101 kPa, x1 = 0.003094 | 0.5575 mPa·s and 0.5579 mPa·s
323.15 K, 101 kPa, x1 = 0.009969 | 0.581 mPa·s and 0.5813 mPa·s
323.15 K, 101 kPa, x1 = 0.02011 | 0.6174 mPa·s and 0.6177 mPa·s
323.15 K, 101 kPa, x1 = 0.04071 | 0.7034 mPa·s and 0.704 mPa·s
323.15 K, 101 kPa, x1 = 0.06533 | 0.8338 mPa·s and 0.8345 mPa·s
323.15 K, 101 kPa, x1 = 0.08944 | 1.001 mPa·s and 1.002 mPa·s
323.15 K, 101.3 kPa, x1 = 0.00112 | 0.5516 mPa·s
323.15 K, 101.3 kPa, x1 = 0.002247 | 0.5585 mPa·s
323.15 K, 101.3 kPa, x1 = 0.004484 | 0.5678 mPa·s
323.15 K, 101.3 kPa, x1 = 0.008927 | 0.587 mPa·s
323.15 K, 101.3 kPa, x1 = 0.0177 | 0.62 mPa·s
323.15 K, 101.33 kPa, x1 = 0.000905 | 0.5522 mPa·s
323.15 K, 101.33 kPa, x1 = 0.002718 | 0.559 mPa·s
323.15 K, 101.33 kPa, x1 = 0.00453 | 0.5682 mPa·s
323.15 K, 101.33 kPa, x1 = 0.006344 | 0.5742 mPa·s
323.15 K, 101.33 kPa, x1 = 0.008159 | 0.5877 mPa·s
